From article PMC6794377
Changes are numbered by the printed parent chain. Results are given in words; binding and its absence hold for the method and conditions named. Binding seen in cells or lysates may run through a third protein. Some entries that bind do so weakly or less than the wild type. Tags and fused reporters may be left off the sequences shown.

Chains of the proteins cited; added tags and fusions are not shown.
UniProt P07814: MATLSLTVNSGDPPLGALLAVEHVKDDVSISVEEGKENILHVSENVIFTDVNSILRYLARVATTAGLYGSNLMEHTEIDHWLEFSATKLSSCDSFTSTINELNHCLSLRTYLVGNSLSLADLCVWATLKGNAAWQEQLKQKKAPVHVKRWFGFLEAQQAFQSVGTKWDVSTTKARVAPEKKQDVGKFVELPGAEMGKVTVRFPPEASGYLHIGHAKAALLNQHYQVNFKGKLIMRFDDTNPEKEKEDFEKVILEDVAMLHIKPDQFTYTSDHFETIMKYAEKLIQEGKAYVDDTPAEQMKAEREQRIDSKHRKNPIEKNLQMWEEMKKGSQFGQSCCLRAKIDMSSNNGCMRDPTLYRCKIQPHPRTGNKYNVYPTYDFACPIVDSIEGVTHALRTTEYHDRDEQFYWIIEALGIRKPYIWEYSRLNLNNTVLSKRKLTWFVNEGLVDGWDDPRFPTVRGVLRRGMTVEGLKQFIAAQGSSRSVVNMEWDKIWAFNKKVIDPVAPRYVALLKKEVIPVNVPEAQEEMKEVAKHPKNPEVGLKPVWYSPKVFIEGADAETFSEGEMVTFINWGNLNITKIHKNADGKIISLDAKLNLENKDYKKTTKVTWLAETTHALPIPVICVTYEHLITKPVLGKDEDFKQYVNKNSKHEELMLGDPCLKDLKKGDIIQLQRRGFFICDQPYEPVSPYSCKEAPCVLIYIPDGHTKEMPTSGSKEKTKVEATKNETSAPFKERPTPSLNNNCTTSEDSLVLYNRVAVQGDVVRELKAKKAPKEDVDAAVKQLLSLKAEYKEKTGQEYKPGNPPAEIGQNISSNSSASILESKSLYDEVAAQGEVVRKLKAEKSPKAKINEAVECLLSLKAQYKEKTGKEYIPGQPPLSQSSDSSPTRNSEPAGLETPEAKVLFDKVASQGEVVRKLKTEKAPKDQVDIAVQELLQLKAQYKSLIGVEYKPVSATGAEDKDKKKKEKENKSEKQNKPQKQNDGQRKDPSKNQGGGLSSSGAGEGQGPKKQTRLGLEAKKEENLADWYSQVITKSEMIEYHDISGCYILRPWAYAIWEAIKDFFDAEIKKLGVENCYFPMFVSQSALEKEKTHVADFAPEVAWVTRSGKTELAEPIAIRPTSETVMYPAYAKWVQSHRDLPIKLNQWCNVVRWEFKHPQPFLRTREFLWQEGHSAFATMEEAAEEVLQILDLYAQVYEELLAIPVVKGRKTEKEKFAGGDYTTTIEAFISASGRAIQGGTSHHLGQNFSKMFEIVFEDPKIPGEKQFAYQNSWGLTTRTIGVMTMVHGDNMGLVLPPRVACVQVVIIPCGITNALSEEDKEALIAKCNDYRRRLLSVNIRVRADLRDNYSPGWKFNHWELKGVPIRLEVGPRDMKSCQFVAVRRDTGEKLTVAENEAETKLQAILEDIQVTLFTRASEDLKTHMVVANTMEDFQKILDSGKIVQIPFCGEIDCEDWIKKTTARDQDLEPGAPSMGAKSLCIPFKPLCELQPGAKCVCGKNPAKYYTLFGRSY

Assays:
Assay in all cases: co-IP; FLAG-tagged hThrRS-L or mutant overexpressed in HEK293T; IP with anti-FLAG, Dynabeads protein G, 4°C; endogenous partners detected by western blotting
[1] = target: T1, hThrRS-L-Y457D with a C-terminal FLAG tag (human) (UniProt A2RTX5)
T1 sequence: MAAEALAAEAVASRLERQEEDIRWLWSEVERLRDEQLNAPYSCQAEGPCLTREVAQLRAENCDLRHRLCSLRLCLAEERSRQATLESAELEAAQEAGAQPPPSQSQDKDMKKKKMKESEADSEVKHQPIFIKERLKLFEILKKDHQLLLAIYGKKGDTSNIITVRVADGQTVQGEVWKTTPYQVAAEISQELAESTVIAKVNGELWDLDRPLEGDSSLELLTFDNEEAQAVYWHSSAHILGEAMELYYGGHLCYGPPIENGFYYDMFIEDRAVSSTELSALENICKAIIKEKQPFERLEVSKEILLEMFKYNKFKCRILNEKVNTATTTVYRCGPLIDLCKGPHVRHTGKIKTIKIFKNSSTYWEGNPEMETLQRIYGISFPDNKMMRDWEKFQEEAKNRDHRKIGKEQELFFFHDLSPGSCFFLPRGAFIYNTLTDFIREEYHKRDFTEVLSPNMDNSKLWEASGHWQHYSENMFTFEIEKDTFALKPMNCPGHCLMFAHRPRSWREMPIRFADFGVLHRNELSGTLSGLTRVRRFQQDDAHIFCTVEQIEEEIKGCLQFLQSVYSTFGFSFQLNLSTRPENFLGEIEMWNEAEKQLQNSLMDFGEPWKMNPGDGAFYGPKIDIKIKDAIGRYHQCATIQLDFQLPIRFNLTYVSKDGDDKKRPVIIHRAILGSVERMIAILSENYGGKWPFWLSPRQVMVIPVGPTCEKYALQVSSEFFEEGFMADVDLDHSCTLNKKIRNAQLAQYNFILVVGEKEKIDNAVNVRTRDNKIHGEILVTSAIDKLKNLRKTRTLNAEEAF

[2] = target: T2, hThrRS-L-Y619D with a C-terminal FLAG tag (human) (UniProt A2RTX5)
T2 sequence: T1 sequence with D457Y, Y619D

[3] = target: T3, hThrRS-L-S459D with a C-terminal FLAG tag (human) (UniProt A2RTX5)
T3 sequence: T1 sequence with D457Y, S459D

binding [1]: binds
binding [2]: binds
binding [3]: binds
Substance: GluProRS, endogenous in HEK293T (from UniProt P07814 1-1512) (enzyme)
